This is one part of the list.
What was measured:
HSkMC = human skeletal muscle cells; experiment: cytotoxicity call (relative viability < 0.9); conditions: 10 µM
HepG2 = experiment: cytotoxicity call (relative viability < 0.9); conditions: 10 µM
S. aureus RN4220 = experiment: growth inhibition call (relative growth <= 0.2); conditions: 50 µM

C[C@@H]1CCCCO[C@H](CN(C)C(=O)Nc2ccc(F)cc2)[C@H](C)CN([C@@H](C)CO)C(=O)c2cc(NC(=O)Nc3ccc(C(F)(F)F)cc3)ccc2O1
inactive: cytotoxicity call (HSkMC) | cytotoxicity call (HepG2) | growth inhibition call (S. aureus RN4220)

O=C(C[C@@H]1CC[C@@H](NC(=O)Cc2ccccn2)[C@H](CO)O1)NCCCN1CCOCC1
inactive: cytotoxicity call (HSkMC) | cytotoxicity call (HepG2) | growth inhibition call (S. aureus RN4220)

Cc1noc(C)c1S(=O)(=O)N(C)C[C@H]1OCCCC[C@@H](C)Oc2ccc(NS(=O)(=O)c3cn(C)cn3)cc2C(=O)N([C@H](C)CO)C[C@@H]1C
inactive: cytotoxicity call (HSkMC) | cytotoxicity call (HepG2) | growth inhibition call (S. aureus RN4220)

COc1ccc(NC(=O)N(C)C[C@@H]2Oc3c(NS(C)(=O)=O)cccc3C(=O)N([C@H](C)CO)C[C@H]2C)cc1
inactive: cytotoxicity call (HSkMC) | cytotoxicity call (HepG2) | growth inhibition call (S. aureus RN4220)

CC(C)NC(=O)Nc1ccc2c(c1)C(=O)N([C@H](C)CO)C[C@@H](C)[C@@H](CN(C)Cc1ccccc1)OCCCC[C@@H](C)O2
inactive: cytotoxicity call (HSkMC) | cytotoxicity call (HepG2) | growth inhibition call (S. aureus RN4220)

C[C@@H]1CCCCO[C@@H](CN(C)Cc2ccccc2)[C@@H](C)CN([C@@H](C)CO)C(=O)c2cc(NC(=O)c3ccncc3)ccc2O1
inactive: cytotoxicity call (HSkMC) | cytotoxicity call (HepG2) | growth inhibition call (S. aureus RN4220)

CCS(=O)(=O)NCC[C@H]1CC[C@@H](NS(=O)(=O)c2ccccc2C)[C@@H](CO)O1
inactive: cytotoxicity call (HSkMC) | cytotoxicity call (HepG2) | growth inhibition call (S. aureus RN4220)

COc1ccc(S(=O)(=O)Nc2cccc3c2O[C@@H](CN(C)C(=O)NC(C)C)[C@H](C)CN([C@@H](C)CO)C3=O)cc1
inactive: cytotoxicity call (HSkMC) | cytotoxicity call (HepG2) | growth inhibition call (S. aureus RN4220)

C[C@H](CO)N1C[C@H](C)[C@@H](CN(C)S(=O)(=O)c2ccc(Cl)cc2)Oc2c(NC(=O)C3CCOCC3)cccc2C1=O
inactive: cytotoxicity call (HSkMC) | cytotoxicity call (HepG2) | growth inhibition call (S. aureus RN4220)

Reference: the antibiotic and cytotoxicity screens of Wong et al. (2023)
